Reference: the supplement of paper PMC8728848
The list shows a part of the results.

How the values were obtained:
Experiment in all cases: glycan array binding signal (z-score within array); higher = stronger binding
Settings in all cases: glycan notation: IUPAC condensed, linker removed; mutation: Y228A
Fuc(a1-2)Gal = target: Fuc(a1-2)Gal
How it was run: (§1)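 The Consortium for Functional Glycomics database supplied 3228 glycan arrays, of which those lacking an available protein sequence were dropped. The binding signal, a within-array Z-score, was averaged across arrays of the same protein sequence and across linkers. Negative scores can be read as non-binding.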

Fuc(a1-2)Gal(b1-3)GalNAc = target: Fuc(a1-2)Gal(b1-3)GalNAc
How it was run: as §1

[1] = target: Fuc(a1-2)Gal(b1-3)GalNAc(a1-3)[Fuc(a1-2)]Gal(b1-4)Glc
How it was run: as §1

[2] = target: Fuc(a1-2)Gal(b1-3)GalNAc(a1-3)[Fuc(a1-2)]Gal(b1-4)GlcNAc
How it was run: as §1

[3] = target: Fuc(a1-2)Gal(b1-3)GalNAc(b1-3)Gal
How it was run: as §1

[4] = target: Fuc(a1-2)Gal(b1-3)GalNAc(b1-3)Gal(a1-4)Gal(b1-4)Glc
How it was run: as §1

[5] = target: Fuc(a1-2)Gal(b1-3)GalNAc(b1-4)[Neu5Ac(a2-3)]Gal(b1-4)Glc
How it was run: as §1

Fuc(a1-2)Gal(b1-3)GlcNAc = target: Fuc(a1-2)Gal(b1-3)GlcNAc
How it was run: as §1

[6] = target: Fuc(a1-2)Gal(b1-3)GlcNAc(b1-2)Man(a1-3)[Fuc(a1-2)Gal(b1-3)GlcNAc(b1-2)Man(a1-6)]Man(b1-4)GlcNAc(b1-4)GlcNAc
How it was run: as §1

[7] = target: Fuc(a1-2)Gal(b1-3)GlcNAc(b1-2)Man(a1-3)[Fuc(a1-2)Gal(b1-3)GlcNAc(b1-2)Man(a1-6)]Man(b1-4)GlcNAc(b1-4)[Fuc(a1-6)]GlcNAc
How it was run: as §1

[8] = target: Fuc(a1-2)Gal(b1-3)GlcNAc(b1-3)Gal(b1-4)Glc
How it was run: as §1

[9] = target: Fuc(a1-2)Gal(b1-3)GlcNAc(b1-3)GalNAc
How it was run: as §1

[10] = target: Fuc(a1-2)Gal(b1-3)GlcNAc(b1-3)[Fuc(a1-2)Gal(b1-3)GlcNAc(b1-6)]GalNAc
How it was run: as §1

[11] = target: Fuc(a1-2)Gal(b1-3)GlcNAc(b1-3)[Gal(b1-4)GlcNAc(b1-6)]Gal(b1-4)Glc
How it was run: as §1

[12] = target: Fuc(a1-2)Gal(b1-3)GlcNAc(b1-3)[Neu5Ac(a2-6)Gal(b1-4)GlcNAc(b1-6)]Gal(b1-4)Glc
How it was run: as §1

[13] = target: Fuc(a1-2)Gal(b1-3)GlcNAc6S
How it was run: as §1

[14] = target: Fuc(a1-2)Gal(b1-3)[Fuc(a1-4)]GlcNAc
How it was run: as §1

[15] = target: Fuc(a1-2)Gal(b1-3)[Fuc(a1-4)]GlcNAc(b1-2)Man(a1-3)[Fuc(a1-2)Gal(b1-3)[Fuc(a1-4)]GlcNAc(b1-2)Man(a1-3)]Man(b1-4)GlcNAc(b1-4)GlcNAc
How it was run: as §1

[16] = target: Fuc(a1-2)Gal(b1-3)[Fuc(a1-4)]GlcNAc(b1-2)Man(a1-3)[Fuc(a1-2)Gal(b1-3)[Fuc(a1-4)]GlcNAc(b1-2)Man(a1-6)]Man(b1-4)GlcNAc(b1-4)[Fuc(a1-6)]GlcNAc(b1-4)[Fuc(a1-6)]GlcNAc
How it was run: as §1

[17] = target: Fuc(a1-2)Gal(b1-3)[Fuc(a1-4)]GlcNAc(b1-3)[Fuc(a1-3)[Gal(b1-4)]GlcNAc(b1-6)]Gal(b1-4)Glc
How it was run: as §1

[18] = target: Fuc(a1-2)Gal(b1-3)[Fuc(a1-4)]GlcNAc(b1-3)[Gal(b1-4)GlcNAc(b1-6)]Gal(b1-4)Glc
How it was run: as §1

[19] = target: Fuc(a1-2)Gal(b1-4)Fuc(a1-3)]GlcNAc(b1-2)Man(a1-3)[Fuc(a1-2)Gal(b1-4)[Fuc(a1-3)]GlcNAc(b1-2)Man(a1-6)]Man(b1-4)GlcNAc(b1-4)GlcNAc
How it was run: as §1

Fuc(a1-2)Gal(b1-4)Glc = target: Fuc(a1-2)Gal(b1-4)Glc
How it was run: as §1

Fuc(a1-2)Gal(b1-4)Glc6S = target: Fuc(a1-2)Gal(b1-4)Glc6S
How it was run: as §1

Fuc(a1-2)Gal(b1-4)GlcNAc = target: Fuc(a1-2)Gal(b1-4)GlcNAc
How it was run: as §1

[20] = target: Fuc(a1-2)Gal(b1-4)GlcNAc(b1-2)Man
How it was run: as §1

[21] = target: Fuc(a1-2)Gal(b1-4)GlcNAc(b1-2)Man(a1-3)[Fuc(a1-2)Gal(b1-4)GlcNAc(b1-2)Man(a1-6)]Man(b1-4)GlcNAc(b1-4)GlcNAc
How it was run: as §1

[22] = target: Fuc(a1-2)Gal(b1-4)GlcNAc(b1-2)Man(a1-3)[Fuc(a1-2)Gal(b1-4)GlcNAc(b1-2)Man(a1-6)]Man(b1-4)GlcNAc(b1-4)[Fuc(a1-6)]GlcNAc
How it was run: as §1

[23] = target: Fuc(a1-2)Gal(b1-4)GlcNAc(b1-2)[Fuc(a1-2)Gal(b1-4)GlcNAc(b1-4)]Man(a1-3)[Fuc(a1-2)Gal(b1-4)GlcNAc(b1-2)Man(a1-6)]Man(b1-4)GlcNAc(b1-4)GlcNAc
How it was run: as §1

[24] = target: Fuc(a1-2)Gal(b1-4)GlcNAc(b1-3)Gal(b1-4)GlcNAc
How it was run: as §1

B1: Epa1-NP-mutant-Y228A (Candida glabrata), Q6VBJ0 (protein)
chain: MILNPALFLNKCVCIYTTLILLLLTNGGYATSSNDISLASKDPTTFPLGCSPDITTPKKGLSMELYSYDFRKKGSYPCWDAAYLDPNYPRTGYKSHRLLAKVDGVTGNINFYYHATKGCTPQLGHLPASYNYPKPLTMTNFTMLLYGYFRPKVTGFHTFTISADDLLFVNFGAGNAFDCCRRDSSADHFGNYQAYAIWGSKTAKDELTVHLDAGVYYPIRLFYNNREADGALSFTFKTESNENTVSDFSEYFFSLDDTEEGCPGLISYDSSCASVKTSKIIGIDYHTETPNENLVPITKTIYHLGIPCTGTTTTPLCGSGFYDPLANKCVTINTSSTSSVTKTTSHTTSKEVSFHSSISSQKTLIPKSIPSPYGPIKSQSIPTEMETSSEISSSEYAFSDVISTPSHSPYTKKHSSLNSSSYTSTVIHSLTSYSISQGIFSTSLSEQNITSKSSTDKFSTATSMSNNITQSSIIISQFSTNNENYTTTSMHTSSDKISTETLNNSISTTTSILFSNSSTILKNNTTIISSDKDTHYHPVNPTIVCSTNKTEIICASITQPSISNSNNHWSSSVLKFNSTTVRSTLPSSAGSNETSINVPFSSSTESNTSTSSTSTSNSKMVRSTLPSSAGSNETSISVPFSSSTESNTSTSSTSTSNSKMVRSTLPSSAGSNETSINVPFSSSTESNTSTSSTSTSNSKTVRSTPFSSAGIIMTSLSQRNNKSASSYASSNSKCYNTADSCRKVHSTPSYLLTSSYTSEGVDYDCSLVSTKLKINDTNCVNNKHTTKSCLKTSVTTTIPTLEIKTARKSSSNTIGLHSYPTSSPNKSISSAPIIGYISSFKTIKTASPSYQTSDLTTITTITSLNNPGSTAVENTHESNDKSRKTSSNDISSKHSVIKETKDAVESSNKSHQTNTLKCSSIIIASSSHNSYESLGGTTLTLTLSKVYSPQNNDTLPFLEISEVNPSRTVLPESSKMMQYLTSTEERNKTARNTIATNIVSISTFHFEGEGNAIRMGYTQLLLMLIGIIVMNIGT
For B1, the “glycan array binding signal (z-score)” value (Fuc(a1-2)Gal) was -0.198, the “glycan array binding signal (z-score)” value (Fuc(a1-2)Gal(b1-3)GalNAc) was -0.26 and the “glycan array binding signal (z-score)” value [1] was -0.231. The “glycan array binding signal (z-score)” value [2] was -0.209, the “glycan array binding signal (z-score)” value [3] was -0.25 and the “glycan array binding signal (z-score)” value [4] was -0.328. The “glycan array binding signal (z-score)” value [5] was -0.321, the “glycan array binding signal (z-score)” value (Fuc(a1-2)Gal(b1-3)GlcNAc) was -0.251 and the “glycan array binding signal (z-score)” value [6] was -0.104. For the same binder, the “glycan array binding signal (z-score)” value [7] was -0.085, the “glycan array binding signal (z-score)” value [8] was -0.246 and the “glycan array binding signal (z-score)” value [9] was -0.272. For the same binder, the “glycan array binding signal (z-score)” value [10] was -0.187, the “glycan array binding signal (z-score)” value [11] was -0.261 and the “glycan array binding signal (z-score)” value [12] was -0.258. The “glycan array binding signal (z-score)” value [13] was -0.209, the “glycan array binding signal (z-score)” value [14] was 0.168 and the “glycan array binding signal (z-score)” value [15] was -0.09. For the same binder, the “glycan array binding signal (z-score)” value [16] was -0.098, the “glycan array binding signal (z-score)” value [17] was -0.414 and the “glycan array binding signal (z-score)” value [18] was -0.27. For the same binder, the “glycan array binding signal (z-score)” value [19] was -0.236, the “glycan array binding signal (z-score)” value (Fuc(a1-2)Gal(b1-4)Glc) was -0.177 and the “glycan array binding signal (z-score)” value (Fuc(a1-2)Gal(b1-4)Glc6S) was 0.011. For the same binder, the “glycan array binding signal (z-score)” value (Fuc(a1-2)Gal(b1-4)GlcNAc) was -0.292, the “glycan array binding signal (z-score)” value [20] was -0.302 and the “glycan array binding signal (z-score)” value [21] was -0.023. For the same binder, the “glycan array binding signal (z-score)” value [22] was -0.172, the “glycan array binding signal (z-score)” value [23] was -0.139 and the “glycan array binding signal (z-score)” value [24] was -0.333.
